According to the supplement of paper PMC3334620:
In all, about 33,000 sequences were measured (“E-score (-0.5 to 0.5)”: median about -0.035, highest 2% from about 0.34 on). The list shows a part of the results.

Target: T1, Mot3 (UniProt P54785)
T1 sequence: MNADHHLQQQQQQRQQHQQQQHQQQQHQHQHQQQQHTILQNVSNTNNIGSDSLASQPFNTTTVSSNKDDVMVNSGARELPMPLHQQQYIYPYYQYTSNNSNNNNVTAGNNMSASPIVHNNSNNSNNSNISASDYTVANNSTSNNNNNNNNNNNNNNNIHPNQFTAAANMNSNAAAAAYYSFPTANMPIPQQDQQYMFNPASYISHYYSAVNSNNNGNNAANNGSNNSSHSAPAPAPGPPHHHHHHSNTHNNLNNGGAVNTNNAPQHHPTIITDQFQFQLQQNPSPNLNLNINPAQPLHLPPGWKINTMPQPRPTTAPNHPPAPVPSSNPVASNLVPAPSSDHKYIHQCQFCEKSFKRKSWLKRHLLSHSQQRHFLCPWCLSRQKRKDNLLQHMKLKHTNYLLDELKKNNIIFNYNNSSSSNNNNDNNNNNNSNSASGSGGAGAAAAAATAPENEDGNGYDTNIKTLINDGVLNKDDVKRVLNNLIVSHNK
Assay: PBM E-score (8-mer binding enrichment) (E-score (-0.5 to 0.5)); higher = stronger / more preferred TF binding; most listed sequences are background and not binding sites
Details: protein concentration: 200 nM; construct: GST-full length
How it was run: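 Full-length yeast transcription factors or their DNA-binding domains, GST-tagged and expressed with PURExpress, were applied at about 100-200 nM to universal all-10-mer Agilent arrays. These arrays had been made double-stranded by primer extension on fresh or once-stripped slides. Detection used fluorescent anti-GST, normalisation used masliner, and E-scores for ungapped eight-base words pooled with reverse complements came from the Universal PBM Analysis Suite.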

Sequence	PBM E-score
ATGAAGTC	-0.161
TAAGCATA	0.0176
AATCCACG	-0.1
GTAGGATA	0.185
ACGAGAAG	0.0683
CTAGTACC	0.057
TCACCGAA	-0.0409
AATTAGCA	0.11
CTACTCGA	0.0146
AAAAAAGA	0.0433
ACGTGATA	0.201
TACTACAA	0.208
AAGTGTTA	0.208
ACCGAAAG	0.0688
AGACAGCA	-0.129
CATACTCG	-0.0935
AATAAACC	-0.0482
TCGCCAGA	-0.257
ATTAACGC	0.306
ACATAAAC	0.16
AGCGGACA	-0.23
GAGCGTCA	-0.142
CGGTATGA	0.0158
GAGCGAAC	-0.154
AGCCGAGC	-0.106

Sequence	PBM E-score
CATGCGTC	-0.0423
ATATCTCG	-0.176
GTGTGCTA	0.0828
ATAACACC	0.178
AAGAGTCA	0.0483
AATGAAAG	0.114
AGCGAGTG	-0.0613
TCAATACA	0.229
AGAGCACC	-0.233
ATTAACTC	0.0273
GCCGTGAA	-0.128
TGGCGCAA	-0.185
AGTCGACG	0.0704
AGGGTAGC	-0.192
AGATTAAG	-0.0517
GGGTGAAA	-0.0283
GGTGTCTA	0.117
ATCCTCGC	-0.265
CGCGCGCA	-0.0351
GCACGTCC	-0.0142
CACCCCGA	-0.202
TGTTCTAA	0.217
AACGGGAC	-0.145
GTTGACCA	-0.0835
AAGTTACT	0.0279

Sequence	PBM E-score
CCTAGAGG	0.0418
CGTACGGA	-0.119
ACTATACC	-0.124
ATAAGCAG	0.0596
ACCCGGGC	-0.0284
ATTGCGAA	-0.0223
AGTCGGTA	-0.214
AACCCAGG	-0.0292
GGTGGTAA	0.0789
ACTCTACC	-0.0524
TGGAAGAA	0.00562
ATCATGCC	-0.0878
AGGAGAGA	-0.128
GAGACTCC	-0.307
CGCTGTCC	-0.0445
CAAAAGTG	-0.00942
CGAAAGTC	-0.0261
AAAGAGTG	0.011
CACTGCGC	-0.0918
AGTAAAAG	0.0823
GTCCACTA	0.132
GTCAAGTA	0.131
AACGAGTC	-0.139
AGCATTGG	-0.0872
AGCCTCGC	-0.216

Sequence	PBM E-score
CATAACCA	-0.0284
ATTAGTGA	-0.0459
GTGAGTCA	-0.0203
GTAAGAAA	0.0284
CATCCACC	-0.159
CCAGACCG	-0.216
AAAGTACT	0.085
CCCACAGC	0.00286
AGCCCGGC	-0.296
ACCATGTG	0.0765
TCCCATCA	-0.0825
AAAGCGTC	-0.137
ATAATTAG	0.087
TATGGTAA	-0.0433
GGCATGTA	0.376
GCGTGGAA	-0.104
GTACAAAC	0.177
GTTTTTAA	0.197
ACCGTCGG	-0.131
ATCGCCGG	-0.166
ACCCCTCG	-0.288
GCTCCACC	-0.268
AGCTCAAC	-0.0373
AGTGACTG	0.00473
AACCCATA	-0.0273

Sequence	PBM E-score
GCTCTACC	-0.187
AAAAAGAA	0.179
AGTATCCC	-0.156
AACATTGT	0.257
TCTCTGAA	0.0118
AATGAAAT	0.0278
AACTCGGT	0.0176
AATTACGG	-0.136
ATAGAATC	-0.0974
ACATGATG	0.241
ATGATGGC	-0.171
AGCTACAA	-0.0573
ACGAGAGA	-0.068
GATGCTAC	-0.122
CCCGTGCC	0.211
AAAATAGA	0.0123
ATTCAGTC	-0.14
AAATCACA	0.0993
AGCGGCCA	-0.332
CGATCCCC	-0.168
AGTGCTGC	-0.277
CAGTTATC	-0.223
AAACTCTA	0.0123
CAGGTTAA	0.18
CTATGAGA	-0.143

Sequence	PBM E-score
AAAATCTA	0.121
ACGGAGGC	0.00578
GGAGTTGA	-0.0647
GATCACGC	0.0934
TCCCGCAA	0.0144
CGTGACGA	-0.00942
ACACTACA	0.332
ACTCTCCG	-0.0347
CTCCTAGC	-0.0699
ACGAATAG	0.0127
CCAGTAGG	-0.00042
TATTACCA	0.162
TAGTACGA	-0.0632
CCCCCCTC	-0.4
TATAGTAA	0.121
ACCAATTA	0.157
GACAACAC	0.261
AAGCGCAT	-0.12
CGAGTCGC	-0.329
ACTCTTAT	0.0679
TATACAGA	0.109
CGCATACA	0.0684
GCGGTAGA	-0.181
GACCGTTA	-0.14
CATCGCAC	-0.18

Sequence	PBM E-score
TCAGGACA	-0.0495
CGCGTCTC	0.012
CAGTACCC	-0.15
ACCCACTG	-0.204
ACCTAAAA	0.215
GGCGTTCA	-0.0928
CCTGGTAA	-0.0215
ATTGATAA	-0.0626
CCTAGTAG	0.143
CCCGACGA	-0.191
CACCATGC	-0.274
GAGTTTTA	0.0998
AGCACAAA	0.129
ACCATCGT	-0.0908
CAGATGGG	-0.164
CAAGACGG	-0.246
ACCGAATA	0.0681
GTCCCGGA	-0.171
GCATGAAC	0.00175
GCGGAATA	0.0122
CGGCGTTC	-0.112
CGTAGCAA	-0.0416
